Data taken from paper PMC6304311 (Influenza and Other Respiratory Viruses, 2018).

System: influenza virus isolates from SARI patients [A(H1N1)pdm09, influenza B, A(H3N2)]
Type: biochemical

**Q.** Which “susceptibility of isolates from SARI cases” value does the source give for CCOC(=O)C1=C[C@@H](OC(CC)CC)[C@H](NC(C)=O)[C@@H](N)C1 [oseltamivir] here?
**A.** susceptible
